Sequences with one replicate were seen in a single cluster, so their values are uncertain.
Test system: ATP
Assay: switch fluorescence ratio, 500 uM ATP over buffer (Cy3 cluster intensity, sum of 5 cycles each) (fold (ratio)); higher = stronger signal-on switching upon ATP binding; sequences stand for … in TCGTCGGCAGCGTCAGATGTGTATAAGAGACAGTTTTTTTTTTTTTTTTTTTTTTTTT…TC
Conditions: aptamer strand: ATP DNA aptamer (quencher-CACCTGGGGGAGTATTGCGGAGGAAGG + anchor), 100 nM annealed; ATP concentration: 500 uM; one replicate
How it was run: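 After annealing to 100 nM quencher-labelled ATP aptamer, Cy3-labelled switching-strand clusters on a modified Illumina MiSeq flow-cell were imaged in selection buffer. A second image followed after 15 min with 500 uM ATP at 22 °C, and five such buffer/ATP cycles were done, each separated by NaOH stripping and re-annealing. The fluorescence ratio, averaged per switch-domain sequence, is summed target-cycle over summed buffer-cycle Cy3 intensity per cluster, with clusters outside 100-1000 RFU excluded.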
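Note: ATP exposure 15 min at 22 °C before imaging.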

Sequence | switch fluorescence ratio
AGTCATGCCC | 1.24
ACCGCTGCGT | 1.05
ACATACGTTG | 1.29
CGATTTGGTG | 1.02
TGATATCCCC | 1.08
AGAAGAGACA | 1.02
TGGTGTCTTT | 1.01
CTCATTCGAT | 1.04
TACATCCAA | 1.05
GCCACGGGCC | 0.996
AACCATATAT | 1.02
CGCCAGATCT | 0.983
AAGTCGCAGA | 0.97
AACGACAAGA | 1.48
GGCTGACAA | 1.01
CAGGATCGG | 0.978
GAAGTCTCCC | 1.06
AGGCCACTCA | 1.05
GAGAGTAAGT | 1.03
CAGCGCCCGA | 1.03
TTTTCCGTTA | 1.03
TCGCGGTTTC | 1.06
CCTGTCCAAA | 1.1

Sequence | switch fluorescence ratio
TAAAATCGAG | 0.956
GACTCCAGGT | 2.22
TAACTCTGCT | 1.07
GGCAGCAGGG | 1.03
ACCAGCTGCG | 1.06
GATGCTAATT | 1
AACTGGCATG | 1.02
GGTTTCAACC | 0.98
CTGGTACTTT | 0.958
CGAGTAAACA | 1.06
GCAGACCGTG | 1.02
TCAGGAGATT | 1.01
CCAGTGCTTT | 1.05
GCCATTATGG | 1.01
CAGTAGAAA | 0.998
ATCGTCGCGG | 1.01
AAACCCGGGT | 1.06
TCACAATCCC | 1.02
TACTATATAC | 2.37
GCCTTTTAGT | 1
TTTGCCAGAG | 1.07
ATTGAGTCT | 0.928
AGCAAAAGGG | 1.01

Sequence | switch fluorescence ratio
TAATGAGGAT | 0.997
ACTAATGATA | 1.05
CTTGCAAAGC | 1.34
ATCTTAGGTC | 1
CGACTCTAGA | 1.07
CGTCCAGCGA | 2.15
ATGCCTCTGC | 0.947
TCGTTGGTAG | 0.981
AGCTGAGGCG | 0.971
ATATGCTGGG | 0.982
GCCATGAACG | 1.07
CTGACCTTGC | 1.9
TTGTTCGGTG | 0.985
TTTTTATACC | 1.04
GTATCGAGGC | 1.08
CACGCAGAAG | 1.22
TACTGAAGAA | 1.05
GGCACGGTTT | 1.03
TTTTCTGCTG | 1.06
TAGCTCATGG | 0.982
GGATGCAACT | 1.01
AACCTTCAGG | 1.06
ATCCTACCCC | 1.2

Sequence | switch fluorescence ratio
TTATTAGCGA | 1.18
CAATCGCCTG | 0.984
AACGCGGCG | 1.04
GAGCTTTCTC | 1.06
CGGCATAGTG | 1.01
GTGCCAATGG | 1.04
GGGTGATAAG | 1.01
GTCGTCGGTG | 1.03
TATATTCCGT | 1.05
GTGCACCAGG | 2.13
AGCCGGACGG | 1.01
ATTCGGACTC | 0.968
ACTCTCGTTG | 1.03
AGGATAACGT | 0.975
TTAATAGTCT | 1.01
GCCTTAATTG | 0.987
CGACTCACTC | 1.79
GAAGGCGCCA | 0.966
CAAAGGTCAC | 0.994
TTAAGTTTCT | 1.01
GGATGGTGAA | 0.992
GCGTCTGTG | 0.988
AGTAAGGTCG | 0.958

Sequence | switch fluorescence ratio
TTTTTCGCCG | 1.41
GACGATAGGT | 0.977
GGACTACCCT | 1.1
TCGAGTGTTA | 0.946
GCGGTCAGTC | 0.988
GAATGCTTGG | 1.02
ACGGAACCAA | 1.19
GCCCTGGACT | 0.944
ACCTTTTGAG | 1.01
GATTAGTTAT | 0.952
CTAATATAAC | 1.01
CCATTGTGCT | 1.02
CACTAGCCTA | 0.998
TTGTGCCCAA | 1.04
TACTACGGCG | 1.04
GGTACACGGT | 1.01
GTTATGAGTG | 0.993
CTTGTATGGC | 0.993
CAGTCTAGAA | 0.959
TATCGCGTAG | 0.975
CCAAACTCAT | 1.04
ATAGCCATTA | 0.993
GTTAGAGTGT | 0.994

Sequence | switch fluorescence ratio
AGACTTGAGA | 1
ATATTTATTA | 0.999
CTCCTCTCAC | 1.97
TGATTTTAGT | 1.02
CTACGCGCTG | 1.07
AAGGTATTAT | 1.02
CTGACAGG | 1.37
TGTTAATACC | 0.97
TGTGACAAGA | 1.07
GGTAGCGGG | 1.03
TATGGTAACA | 0.98
TTGTGTAT | 1.02
GCGTATGTGT | 0.996
TATTGCGACG | 1.05
TTTAATGGG | 0.977
AAAACAGCGA | 1.03
ATCGCGGGGC | 1.13
CGCCTTGTGT | 0.979
GACTACGACG | 1.05
TCAGGTGGTA | 1.14
CTAGAATTT | 0.964
CAACCTGTGG | 1.18
ACTGATGGAT | 1.02

Sequence | switch fluorescence ratio
GACATTATG | 1.04
GTGCGTTTAT | 1.05
AGGGCAACTT | 1.09
GGGCCACATT | 1.02
TGGCCAAGAG | 1.01
CTGGGTGAA | 1.01
AGTCCCTTGA | 0.993
GGGTGGCGCG | 0.977
CACAGCGCCC | 1.11
CTCTAAGAGC | 1.04
ACGTAGGGCC | 1
GAACTAGGAT | 1.06
TGAAAGGTT | 0.986
TTTCTGTGCA | 1.03
CAAACGCATT | 4.2
TAGGCTTCAG | 0.965
CAGTGATGAT | 1
CTTAACTTCA | 1.12
ATGGTGTTGT | 1.21

— the supplement of paper PMC10126150
